For test [1], the target named is T1, FLAG-SCP3 in CaSki-SCP3 cells (human) (UniProt Q8IZU3).
T1 sequence: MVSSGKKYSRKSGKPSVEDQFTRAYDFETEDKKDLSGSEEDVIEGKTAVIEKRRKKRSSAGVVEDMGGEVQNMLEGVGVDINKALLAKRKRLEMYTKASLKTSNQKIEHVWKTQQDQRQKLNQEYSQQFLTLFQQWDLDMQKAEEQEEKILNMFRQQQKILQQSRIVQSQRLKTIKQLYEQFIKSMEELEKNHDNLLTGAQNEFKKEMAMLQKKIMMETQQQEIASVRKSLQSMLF
Kind of test: co-IP; CaSki-SCP3 cells lysed in NP40 lysis buffer; immunoprecipitation with anti-FLAG or rabbit IgG 16 h, Western blot for endogenous JAB1. A general note: Immunoblotting shows a protein as a band on a membrane.

Protein sequences, listed by entry. Tags and fused reporters are not part of them.
UniProt Q92905: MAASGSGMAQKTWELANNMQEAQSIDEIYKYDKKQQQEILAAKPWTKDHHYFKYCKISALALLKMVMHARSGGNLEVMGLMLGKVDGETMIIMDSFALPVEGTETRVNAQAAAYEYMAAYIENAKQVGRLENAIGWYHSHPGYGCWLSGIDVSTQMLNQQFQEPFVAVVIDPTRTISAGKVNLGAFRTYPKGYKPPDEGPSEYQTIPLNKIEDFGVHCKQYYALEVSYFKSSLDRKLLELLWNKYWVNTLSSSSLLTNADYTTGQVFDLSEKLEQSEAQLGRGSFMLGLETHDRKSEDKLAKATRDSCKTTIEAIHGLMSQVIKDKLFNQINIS

In test [2] the target is T2, GFP-SCP3 D116G (human) (UniProt Q8IZU3).
T2 sequence: T1 sequence with D116G
Kind of test: co-IP; HEK293 cells co-transfected with GFP-SCP3 constructs and FLAG-JAB1, 48 h; NP40 lysis buffer (50 mM Tris-HCl pH 8.0, 5 mM EDTA, 150 mM NaCl, 1% NP40); immunoprecipitation with GFP antibody 16 h, Western blot with GFP and FLAG antibodies.

Test [3] concerns the target T3, GFP-SCP3 D139G (human) (UniProt Q8IZU3).
T3 sequence: T1 sequence with D139G
The description is as above.

Test [4] addresses T4, GFP-SCP3 (pEGFP-SCP3), wild type (human) (UniProt Q8IZU3).
T4 sequence: T1 sequence
The description is as above.

Test [5] addresses T5, Synaptonemal complex protein 3 (SCP3), full-length human, GAL4 DNA-binding domain fusion (pBD-GAL4-SCP3 bait) (human) (UniProt Q8IZU3).
T5 sequence: T1 sequence
Kind of test: two-hybrid; bait pBD-GAL4-SCP3 in yeast AH109, prey from a HeLa cell library and then full-length pAD-JAB1; growth over 3 days on medium lacking Leu, Trp, His and Ade.

Numbering of substitutions follows the chain as printed. No constants are given. Whether binding was seen depends on the method and setting. For some assays here: Binding seen in cells or lysates may run through a third protein. Some binding calls cover weakened binding; strength is not graded here. Sequences can lack the tags named with a protein.

Take “Endogenous JAB1 of CaSki-SCP3 cells (from UniProt Q92905 1-334)”: the binding result in test [1] was “binds”. As for “FLAG-JAB1 (p3xFLAG CMV7.1-JAB1) (from UniProt Q92905 1-334)”, the binding result in test [2] is “binds”; in test [3] it was “no binding”; in test [4], “binds”. Take “Jun activation domain-binding protein 1 (JAB1), full-length human, GAL4 activation domain fusion (pAD-JAB1 prey) (from UniProt Q92905 1-334)”: the binding entry in test [5] was “binds”.

(Values after article PMC8396186.)
